Test results from publication PMC4336329 (PLoS ONE, 2015).
About 2,200 (0.71%) of roughly 310,000 compounds showed an effect of 50% or more. Effects have a minus sign here. This is one part of the list.

Molecular target: human ether-à-go-go-related gene (hERG) potassium channel (human, UniProt Q12809)
Assay: primary screen, population patch clamp on CHO cells stably expressing hERG

Chain of human ether-à-go-go-related gene (hERG) potassium channel (Q12809 whole entry, looked up): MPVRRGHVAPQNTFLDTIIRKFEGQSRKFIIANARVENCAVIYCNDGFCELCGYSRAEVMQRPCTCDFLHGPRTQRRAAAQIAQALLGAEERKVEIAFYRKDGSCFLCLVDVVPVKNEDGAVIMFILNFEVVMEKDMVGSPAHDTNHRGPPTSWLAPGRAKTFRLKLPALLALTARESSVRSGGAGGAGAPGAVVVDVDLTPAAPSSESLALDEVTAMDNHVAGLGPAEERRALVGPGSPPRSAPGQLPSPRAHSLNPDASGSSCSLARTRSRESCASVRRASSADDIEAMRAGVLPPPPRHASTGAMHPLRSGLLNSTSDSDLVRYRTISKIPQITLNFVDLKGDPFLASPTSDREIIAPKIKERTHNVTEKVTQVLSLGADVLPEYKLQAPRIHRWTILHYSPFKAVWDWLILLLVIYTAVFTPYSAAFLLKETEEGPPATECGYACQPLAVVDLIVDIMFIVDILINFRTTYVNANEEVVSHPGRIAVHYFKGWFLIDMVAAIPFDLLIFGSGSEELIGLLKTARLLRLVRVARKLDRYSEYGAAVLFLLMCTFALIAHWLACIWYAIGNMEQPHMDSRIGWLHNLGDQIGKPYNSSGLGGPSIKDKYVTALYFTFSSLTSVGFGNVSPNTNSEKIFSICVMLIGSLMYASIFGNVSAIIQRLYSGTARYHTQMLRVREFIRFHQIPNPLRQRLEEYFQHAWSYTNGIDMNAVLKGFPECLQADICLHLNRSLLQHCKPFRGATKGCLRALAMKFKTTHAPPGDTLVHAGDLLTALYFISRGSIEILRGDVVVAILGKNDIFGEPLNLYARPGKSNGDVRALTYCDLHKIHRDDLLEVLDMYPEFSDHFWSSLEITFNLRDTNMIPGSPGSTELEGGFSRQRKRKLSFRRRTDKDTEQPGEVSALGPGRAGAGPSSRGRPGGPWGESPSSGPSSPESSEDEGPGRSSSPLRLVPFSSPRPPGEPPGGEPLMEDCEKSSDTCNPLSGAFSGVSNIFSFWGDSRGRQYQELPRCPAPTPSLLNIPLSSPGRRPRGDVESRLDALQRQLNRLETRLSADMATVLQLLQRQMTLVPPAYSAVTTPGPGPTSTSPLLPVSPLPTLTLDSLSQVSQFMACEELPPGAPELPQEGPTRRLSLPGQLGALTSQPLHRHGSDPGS

Structure (SMILES) | hERG current change (%, negative = inhibition) at 1uM
CCCCC(=O)Nc1ccc(C(=O)c2ccccc2)cc1 | 4.39%
CC(=O)N1CCN(Cc2nc3cc(NC(=O)c4ccccc4Cl)ccc3n2C)CC1 | 6.05%
Cc1nn(-c2ccccc2)c(Cl)c1/C=N/NC(=O)c1nn(C)cc1[N+](=O)[O-] | 6.06%
Cc1ccccc1-n1cnc2cc(NCc3cccs3)ccc21 | 2.42%
Cc1cccc(C)c1NC(=O)CC(NCc1ccco1)C(=O)O (stereo not drawn) | 6.7%
CCOc1ccc(CN2CCNC(=O)C2CC(=O)N(C)C2CCCCC2)cc1 (stereo not drawn) | 22.9%
C[C@@H](CN1CCC(Cc2ccccc2)CC1)[C@@H](O)c1ccc(O)cc1.Cl | -60.5%
CCOc1ccc(CCNS(=O)(=O)c2ccc3c(c2)NC(=O)CC(=O)N3)cc1OCC | 11.6%
CN1CCN(CCNC(=O)Nc2ccccc2C(F)(F)F)CC1 | 4.35%
COc1ccc(NC(=S)N/N=C/c2ccc(F)c(F)c2)cc1 | 11.7%
CCOC(=O)C1(CCOc2ccccc2)CCN(Cc2cc(OC)c(O)cc2Cl)CC1 | 7.21%
CN(C)C(=O)Cn1c(=O)n(C)c2ccccc21 | 1.54%
CCCc1nc2oc3cc(OC)ccc3c(=O)c2c(=O)n1Cc1ccco1 | 2.53%
O=C(CSc1ccc([N+](=O)[O-])cn1)Nc1cc(C(F)(F)F)ccc1N1CCOCC1 | 14.8%
COc1ccc(CN2C(=O)c3cccnc3C2Nc2ccc(OC)c(Cl)c2)cc1 (stereo not drawn) | -0.379%
Cc1ccc(-c2nnn(C/C(N)=N/O)n2)cc1 | 10.4%
FC(F)Oc1ccccc1C1CC(c2ccc(Br)s2)Nc2ncnn21 (stereo not drawn) | 14.5%
CC(C)c1ccccc1NC(=O)c1ccccc1NC(=O)C1CCCCC1 | 7.38%
CCC(C)NC(=O)C1CCN(S(=O)(=O)c2cccc3cccnc23)CC1 (stereo not drawn) | 0.398%
COc1ccc2c(c1)-c1c(ssc1=S)C(C)(C)N2 | 10.3%
O=C(c1ccc(S(=O)(=O)Cc2ccccc2F)c([N+](=O)[O-])c1)N1CCCC1 | 9.81%
CCC1(CC)C(=O)C(C)(C)C(=O)OC1c1ccccn1 (stereo not drawn) | 7.87%
CC(C)(C)NC(=O)c1cccc(NC(=O)Cc2ccc(Br)cc2)c1 | 5.72%
COc1ccc(/C=N\NC(=O)c2cc(O)c(O)c(O)c2)cc1CN1CCN(c2ccc(F)cc2)CC1 | 10.4%
